Measurements taken from the supplement of paper PMC11417369.
The list shows a part of the results.

tested on: PF3D7_0420300 AP2 domain 1 (GST-tagged); assay: gcPBM binding intensity (ln(normalized median fluorescence intensity)); higher = stronger DNA binding
In short: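 Each value is the highest Masliner-normalised natural-log median intensity across replicate spots of either orientation of a probe. The probes were primer-extended double-stranded 36-bp intergenic genomic sequences on an Agilent 4 × 180k array, alongside negative controls, exposed for 1 h to GST-tagged P. falciparum DNA-binding domains expressed in E. coli. Bound protein was picked up with Alexa488 anti-GST antibody and scanned at 488 nm.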

Row | Sequence | gcPBM binding intensity (ln)
1 | TTATACTAAATGAACACACACACATCTATATTTATA [CACACA_site6199] | 9.99
2 | AATTAAAATAATAATACACACATCATAGAAAAAGAC [CACACA_site292] | 10.4
3 | AAATTAGACTATAATACACACATAAAAAAAAAATCA [CACACA_site7672] | 9.72
4 | AATTGGGTAGGACATGCATGAGAAATTAATATTGCA [TGCATGCA_site356] | 9.17
5 | ATATATATATATATATGTACTAACCTTTTAAAATAT [XGTACX_site6488] | 9.04
6 | AATCAAAGCCCACATACACACACATATATATATATA [CACACA_site7987] | 9.78
7 | TATTACATTGTTGAATGTACTCATTTAAAATTTATA [XGTACX_site7987] | 9.04
8 | ATGTCAAACATTTGCACACAAAAAAATAAAAATTAA [CACACA_site692] | 9.29
9 | TTTTTCTTAAAAAATTGTACACATATATATATATAT [XGTACX_site542] | 9.11
10 | ATTAAGTTAAACATTACACACTATGTATTATTTATG [CACACA_site973] | 9.52
11 | TTTTTTTTTTTTAATACACACATATTTATATTTATT [CACACA_site7802] | 9.46
12 | TAATATTATTTAGAGTGTACTCATAAATCAACAAAA [XGTACX_site5269] | 9.08
13 | ATATAGAACACCTGTGCATGCAAGTGCTAAAAAATT [TGCATGCA_site213] | 9.43
14 | CTATTTTTATATTATTGTACGTTGTTATTATATATA [XGTACX_site1469] | 9.63
15 | CTAAGCTAAGTAAGCTGTACTTCACCTTTATACAGT [XGTACX_site3087] | 9.06
16 | TTTATATTTATATATACACACATATACATCCTATTT [CACACA_site3079] | 9.67
17 | ATATATATGGAAACAGTGCAATACATATATATATAT | 9.71
18 | CACATACAGACATACACACATACACATATACGCATA [CACACA_site1745] | 9.86
19 | TCTGTATATTTCGCGCGTACGAACAAATTGATAATT [XGTACX_site7965] | 9.26
20 | ATATAATATGGTATTACACACTGTTAAAAGTATGGC [CACACA_site5190] | 9.5

Row | Sequence | gcPBM binding intensity (ln)
21 | ATATATATTTTTATAACACACAATGAAGTACATTAC [CACACA_site8270] | 9.42
22 | AAACAATAAAAGATTACACACATATATAGCATCTAT [CACACA_site5012] | 9.74
23 | TTTCATTTGTCGTTATGTACTTATTAAATATTATTA [XGTACX_site7709] | 9.46
24 | TAAAGTAAAGACATACTTATTTTCCATCCACTTCTT [CACACA_negctrl_site1288] | 9.28
25 | CATAAATAAGCTTTAGTGCATTATATTTAAATTTTT | 8.97
26 | ATAAAATGAACCTTTTGTACATATATATATATATAT [XGTACX_site4610] | 9.09
27 | ATATTATATATATATAAACACACAAATATTTTTATA [CACACA_site8486] | 9.35
28 | AACATCTCATATCGTACTACACTCATATATATATAT [XGTACX_site170] | 9.66
29 | TGAATATTTCTATATACACACATATATATATATATA [CACACA_site3451] | 9.34
30 | TTTAATAATAATAAAAGTACACAAATATAAAGGAAA [XGTACX_site5203] | 9.48
31 | AGGTTTTCTTAAATAGTGCATTATAACAAAAATAAA | 8.94
32 | TCACGTATGTATATTACACACATACATATTATTCAC [CACACA_site4276] | 9.58
33 | ATATATATAAAATGTTGTACATATATATAAATAATA [XGTACX_site1661] | 9.16
34 | CTAAAATACAGACACACACACACATATATATATATA [CACACA_site4150] | 9.93
35 | TTAAAATAGGGCGAAGAAATTTTCTGTAAACATTTG [CACACA_negctrl_site1010] | 9.01
36 | ATATGCTTATATTATATATATAAGTCTATATATTTT [XGTACX_negctrl_site349] | 9.18
37 | GGGTTTTTAAAATGTAGTACATATGTAAACATCAAA [XGTACX_site1262] | 9.05
38 | ATTTGAAATTGGTAGACACACAATAAAATATCAAAA [CACACA_site447] | 9.27
39 | AAAAAGTTATTATGAACACACATTTATTATAGTCAT [CACACA_site6838] | 9.37
40 | CATATAAATATTTGTGCACACAATTATTAATAATTA [CACACA_site3884] | 9.35

Row | Sequence | gcPBM binding intensity (ln)
41 | TTAAACTTGAGACACACACACACACGGATATAAAAA [CACACA_site6495] | 10.2
42 | CTTTTATTCAAAAGATGTACTTAAATATATATCTAA [XGTACX_site4326] | 8.8
43 | TGCAGTCTGGAGAAACGTACACAGTATCTGGTAACA [XGTACX_site2014] | 9.18
44 | ATGTGTATAATTAAATGTACATATATATATATATAT [XGTACX_site829] | 9.52
45 | ATATATATCGGACACACACACATGTTTTAAAACTAT [CACACA_site4218] | 9.97
46 | AATAAAATGGAATACGGTACACATAATCCTAAAATG [XGTACX_site926] | 9.43
47 | ATATTATAAAATAAAAGTACACAATTATATATATAT [XGTACX_site8812] | 9.35
48 | TATTTTTAAAATTAAATGAATAAATAAATAAATATA [XGTACX_negctrl_site553] | 8.93
49 | TTTATATTTATTGTTGTGCACAGAACCATATTCGTT | 9.28
50 | TATCACTATAGACAAGCATGCATATGTACTAATATC [TGCATGCA_site1020] | 9.32
51 | CATTATTATTAACATACACACGTGTTATATACCCCC [CACACA_site9365] | 9.89
52 | TATATATTTATTTATAGTACACTATTTATGAAAACC [XGTACX_site3062] | 9.1
53 | TAACATAAATTTAGGAGTACACTTTTTATACATACA [XGTACX_site4066] | 9.12
54 | AAATTCACAATGTTTGGTACACATAAAAAAAAAAGA [XGTACX_site7109] | 9.32
55 | TATTATTATTTTATGGTGCAAAAAAAAAAAAAAAAA | 8.56
56 | AAAAATTTTTTTTTTTTTTTAAATAATAAAAATGAA [CACACA_negctrl_site1435] | 8.58
57 | AACATACGACAATACGCACACATATCTGTACATATT [CACACA_site5115] | 9.8
58 | TTTATATATTTTGTCGTGCACATTTGGAAAATTACA [GTGCAC_site9776] | 9.22
